Experimental data from patent publication US6340783 (University of Washington, dated 2002).

Legend:
[1] = target: T1, high Mr heparan sulfate proteoglycan (HSPG) isolated from the culture media of bovine aortic endothelial cells (bovine (calf thoracic aorta endothelial …, UniProt A0AAA9TDR0 23-4401, Proteoglycan: heparan sulfate GAG chains on serines of the core protein also take part in binding and cannot be written in letters. 35S-sulfate or 125I label, depending on the experiment.)); assay: solid phase binding assay, 125I-BAP (1-28) on HSPG (0.28 µg) immobilised on nitrocellulose coated wells, Scatchard analysis; low affinity binding site
T1 construct: also called high Mr HSPG; high molecular weight HSPG
T1 sequence (A0AAA9TDR0 entry or part of it limits assumed, form in doubt): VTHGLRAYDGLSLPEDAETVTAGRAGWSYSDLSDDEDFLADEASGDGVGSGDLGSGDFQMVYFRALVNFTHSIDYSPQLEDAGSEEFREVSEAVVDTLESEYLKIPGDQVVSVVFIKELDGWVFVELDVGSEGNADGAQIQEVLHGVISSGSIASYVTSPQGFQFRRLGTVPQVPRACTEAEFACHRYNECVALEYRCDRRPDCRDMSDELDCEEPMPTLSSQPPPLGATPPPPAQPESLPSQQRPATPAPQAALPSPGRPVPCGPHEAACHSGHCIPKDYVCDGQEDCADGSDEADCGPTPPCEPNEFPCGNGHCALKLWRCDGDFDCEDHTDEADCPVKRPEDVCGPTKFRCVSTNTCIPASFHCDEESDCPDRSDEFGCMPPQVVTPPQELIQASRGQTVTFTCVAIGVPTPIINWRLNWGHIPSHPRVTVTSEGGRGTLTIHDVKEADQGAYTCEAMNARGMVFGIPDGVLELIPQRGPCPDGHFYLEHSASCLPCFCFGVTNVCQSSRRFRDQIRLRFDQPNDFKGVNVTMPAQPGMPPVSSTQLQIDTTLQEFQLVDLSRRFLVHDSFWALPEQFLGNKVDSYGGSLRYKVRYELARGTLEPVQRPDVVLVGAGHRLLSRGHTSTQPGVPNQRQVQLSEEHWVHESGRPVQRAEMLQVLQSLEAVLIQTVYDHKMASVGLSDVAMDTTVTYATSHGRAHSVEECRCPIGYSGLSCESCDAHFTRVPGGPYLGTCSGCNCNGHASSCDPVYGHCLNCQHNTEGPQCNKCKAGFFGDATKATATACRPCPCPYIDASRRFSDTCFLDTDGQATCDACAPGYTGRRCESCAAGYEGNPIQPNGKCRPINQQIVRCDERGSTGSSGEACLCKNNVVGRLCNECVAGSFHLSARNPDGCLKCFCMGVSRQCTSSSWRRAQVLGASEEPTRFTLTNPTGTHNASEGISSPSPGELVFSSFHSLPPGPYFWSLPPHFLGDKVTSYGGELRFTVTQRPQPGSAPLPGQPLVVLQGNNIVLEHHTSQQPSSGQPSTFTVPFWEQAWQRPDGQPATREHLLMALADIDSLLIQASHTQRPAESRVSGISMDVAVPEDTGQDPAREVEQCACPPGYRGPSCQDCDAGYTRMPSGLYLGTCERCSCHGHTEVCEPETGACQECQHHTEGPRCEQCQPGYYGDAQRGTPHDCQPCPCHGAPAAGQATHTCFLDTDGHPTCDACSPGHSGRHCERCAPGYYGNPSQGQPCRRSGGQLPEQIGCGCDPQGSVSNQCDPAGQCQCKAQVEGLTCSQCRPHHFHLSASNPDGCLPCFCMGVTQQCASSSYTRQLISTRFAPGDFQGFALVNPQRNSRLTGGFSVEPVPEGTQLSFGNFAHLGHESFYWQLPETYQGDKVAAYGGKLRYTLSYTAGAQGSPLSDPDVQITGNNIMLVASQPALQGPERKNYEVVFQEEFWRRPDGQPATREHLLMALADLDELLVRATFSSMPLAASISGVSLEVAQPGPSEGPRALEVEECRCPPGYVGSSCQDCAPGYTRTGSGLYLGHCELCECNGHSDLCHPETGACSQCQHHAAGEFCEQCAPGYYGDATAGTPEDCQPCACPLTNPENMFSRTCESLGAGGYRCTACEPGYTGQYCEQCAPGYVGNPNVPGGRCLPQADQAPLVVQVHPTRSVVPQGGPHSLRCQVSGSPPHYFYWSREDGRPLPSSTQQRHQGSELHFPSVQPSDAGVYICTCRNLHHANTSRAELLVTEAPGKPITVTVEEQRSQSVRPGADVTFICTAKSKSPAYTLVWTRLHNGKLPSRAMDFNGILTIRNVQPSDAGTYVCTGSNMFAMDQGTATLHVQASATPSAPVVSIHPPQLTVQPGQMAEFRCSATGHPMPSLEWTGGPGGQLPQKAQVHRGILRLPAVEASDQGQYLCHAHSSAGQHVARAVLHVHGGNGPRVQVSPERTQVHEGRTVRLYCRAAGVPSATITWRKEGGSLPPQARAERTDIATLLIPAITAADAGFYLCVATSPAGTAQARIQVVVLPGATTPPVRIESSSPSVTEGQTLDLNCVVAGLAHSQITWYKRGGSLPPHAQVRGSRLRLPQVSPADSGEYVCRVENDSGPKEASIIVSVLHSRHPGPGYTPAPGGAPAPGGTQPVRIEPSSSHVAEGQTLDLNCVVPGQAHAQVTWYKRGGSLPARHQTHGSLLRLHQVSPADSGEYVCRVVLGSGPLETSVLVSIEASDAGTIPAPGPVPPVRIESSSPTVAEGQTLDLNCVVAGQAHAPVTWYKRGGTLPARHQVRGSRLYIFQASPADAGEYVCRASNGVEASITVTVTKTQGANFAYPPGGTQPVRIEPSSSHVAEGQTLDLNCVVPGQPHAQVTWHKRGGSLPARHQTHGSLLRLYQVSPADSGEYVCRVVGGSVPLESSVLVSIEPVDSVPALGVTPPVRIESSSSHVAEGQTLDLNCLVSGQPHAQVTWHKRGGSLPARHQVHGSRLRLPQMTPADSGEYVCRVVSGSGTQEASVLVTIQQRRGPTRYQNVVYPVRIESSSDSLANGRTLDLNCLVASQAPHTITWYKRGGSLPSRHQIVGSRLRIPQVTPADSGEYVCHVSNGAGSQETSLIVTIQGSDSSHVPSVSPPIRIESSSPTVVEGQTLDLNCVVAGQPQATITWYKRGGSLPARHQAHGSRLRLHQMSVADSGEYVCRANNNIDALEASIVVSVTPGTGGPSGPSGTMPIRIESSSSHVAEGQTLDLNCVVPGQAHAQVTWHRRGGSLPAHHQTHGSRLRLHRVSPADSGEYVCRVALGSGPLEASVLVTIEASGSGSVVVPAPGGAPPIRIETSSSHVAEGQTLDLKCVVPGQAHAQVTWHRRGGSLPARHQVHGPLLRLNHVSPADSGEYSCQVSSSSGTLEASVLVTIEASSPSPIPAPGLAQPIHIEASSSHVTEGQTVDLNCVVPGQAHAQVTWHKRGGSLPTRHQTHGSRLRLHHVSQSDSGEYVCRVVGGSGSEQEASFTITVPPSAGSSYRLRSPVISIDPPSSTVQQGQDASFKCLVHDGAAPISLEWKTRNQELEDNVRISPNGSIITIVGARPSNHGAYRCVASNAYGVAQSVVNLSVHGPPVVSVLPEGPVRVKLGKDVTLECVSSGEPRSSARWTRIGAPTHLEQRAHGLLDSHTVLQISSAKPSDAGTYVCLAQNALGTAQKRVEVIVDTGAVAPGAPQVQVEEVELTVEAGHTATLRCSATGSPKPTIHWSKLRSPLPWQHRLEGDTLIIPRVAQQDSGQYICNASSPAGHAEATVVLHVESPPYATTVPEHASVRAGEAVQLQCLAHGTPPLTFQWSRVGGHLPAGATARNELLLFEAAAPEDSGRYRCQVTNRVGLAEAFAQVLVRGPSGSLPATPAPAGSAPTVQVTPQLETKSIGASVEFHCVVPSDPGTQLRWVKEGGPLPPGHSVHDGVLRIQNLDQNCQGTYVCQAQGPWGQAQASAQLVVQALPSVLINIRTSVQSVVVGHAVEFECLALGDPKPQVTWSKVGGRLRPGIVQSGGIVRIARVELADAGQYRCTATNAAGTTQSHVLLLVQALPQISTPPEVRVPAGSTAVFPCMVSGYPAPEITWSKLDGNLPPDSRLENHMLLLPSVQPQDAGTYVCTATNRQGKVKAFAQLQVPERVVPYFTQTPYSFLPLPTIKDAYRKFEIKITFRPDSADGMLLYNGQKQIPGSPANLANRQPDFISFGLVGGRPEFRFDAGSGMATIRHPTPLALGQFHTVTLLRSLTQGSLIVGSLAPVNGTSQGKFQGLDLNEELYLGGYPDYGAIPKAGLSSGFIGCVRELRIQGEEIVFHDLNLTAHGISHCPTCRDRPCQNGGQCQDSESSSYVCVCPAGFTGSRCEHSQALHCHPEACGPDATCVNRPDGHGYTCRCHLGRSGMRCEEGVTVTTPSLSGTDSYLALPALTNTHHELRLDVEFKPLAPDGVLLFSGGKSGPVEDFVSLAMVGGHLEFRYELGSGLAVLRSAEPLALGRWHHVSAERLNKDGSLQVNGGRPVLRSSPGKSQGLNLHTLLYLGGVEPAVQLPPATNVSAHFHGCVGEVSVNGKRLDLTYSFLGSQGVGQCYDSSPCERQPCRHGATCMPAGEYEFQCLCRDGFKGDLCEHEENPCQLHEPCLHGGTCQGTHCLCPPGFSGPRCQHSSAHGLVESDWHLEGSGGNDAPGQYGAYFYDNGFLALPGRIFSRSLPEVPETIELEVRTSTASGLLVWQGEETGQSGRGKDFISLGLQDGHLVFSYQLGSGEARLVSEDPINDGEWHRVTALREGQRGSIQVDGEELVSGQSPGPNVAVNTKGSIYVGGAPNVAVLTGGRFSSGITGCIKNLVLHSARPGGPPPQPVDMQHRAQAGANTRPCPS
Description: (§1) Wells were blocked overnight at room temperature with 200 μl of 5% non-fat dried milk. After blocking, wells were rinsed 3 times with 200 μl of TBS. […] Bars indicate standard error of the mean.
(§2) Polyvinyl microtiter wells were coated with 100 µl of nitrocellulose solution (Schleicher and Schuell) (10 cm² of BA85 nitrocellulose in 10 ml of methanol) and allowed to dry at room temperature for 4 hours. Wells were coated overnight at room temperature with unlabeled HSPG to give 0.12 µg or 0.28 µg of bound-HSPG per well, and blocked overnight at room temperature with 200 µl of 5% non-fat dried milk (Carnation Co., Los Angeles, Calif.).

[2] = target: T1, high Mr heparan sulfate proteoglycan …; assay: solid phase binding assay, 125I-BAP (1-28) on HSPG (0.28 µg) immobilised on nitrocellulose coated wells, Scatchard analysis; high affinity binding site
Description: as §1, §2

[3] = target: T2, low density heparan sulfate proteoglycan isolated from the mouse Engelbreth-Holm-Swarm (EHS) sarcoma … (mouse, UniProt Q05793 22-3707, limits assumed, heparan sulfate glycosaminoglycan chains on the core protein); assay: competition with 125I-HSPG on the BAP (1-28) affinity column
T2 construct: Purified from tumor; gift of Dr. Koji Kimata; also called EHS HSPG; EHS basement-membrane HSPG

B1: beta-amyloid protein (BAP) […], synthetic peptide (peptide)
peptide: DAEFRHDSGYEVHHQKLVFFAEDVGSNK
modifications: 125I label (chloramine T) in the solid phase binding assay; unlabeled and coupled to Affi-gel 10 in the column assays ; chain 1: 125I-iodinated by the chloramine T method in the solid phase binding assay; unlabeled and coupled to Affi-gel 10 in the column assays
notes: only residues 12-17 are spelled out (Val-His-His-Gln-Lys-Leu); also called BAP ([…]); β/A4 ([…])
Kd [1]: 42 nM
Kd [2]: 0.083 nM
binding result [3]: binds
